Reference: the supplement of paper PMC9334596
“And” between values parts separate entries of the source, which are not always exact repeats. Equal values may be shown once. In all, about 5,300 compounds were measured (“PER2::LUC luminescence relative to vehicle control”: median about 0.96, highest 2% from about 1.3 on). The list shows a part of the results.

Test system: mPer2Luc MEF
Assay: PER2::LUC luminescence relative to vehicle control (fold of vehicle); higher = higher PER2::LUC reporter signal
Conditions: 10 µM
How it was run: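 Mouse embryonic fibroblasts carrying the mPer2Luc reporter were seeded at ~3000 cells per well in 384-well plates, 48 h before compounds from commercial libraries were added at 10 μM. Cells were grown in DMEM with 10% FBS at 37 °C and 5% CO2. Luminescence was read with the ONE-Glo luciferase assay system 24 h and 30 h after treatment, followed by an alamarBlue viability assay. The value is PER2::LUC luminescence as fold of vehicle control.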

Row | Compound | PER2::LUC luminescence (time after treatment 24 h) | PER2::LUC luminescence (time after treatment 30 h)
1 | C[C@H](NC(=O)Cc1cc(F)cc(F)c1)C(=O)N[C@H](C(=O)OC(C)(C)C)c1ccccc1 [Gamma-SECRETASE INHIBITOR IX] | 0.938 | 0.994
2 | CN1CCc2cccc3c2[C@H]1Cc1ccc(O)c(O)c1-3 | 1.07 and 0.931 and 1.1 | 0.809 and 0.874 and 1.05
3 | CNC(CC(=O)O)C(=O)O (stereo not given) | 1.01 | 1.04
4 | CN1C2=CC(=O)/C(=N\NC(N)=O)C=C2CC1S(=O)(=O)O (stereo not given) | 0.898 | 0.938
5 | CCCCC/C=C\CCC(=O)N[C@H]1[C@H](Oc2c3cc4cc2Oc2ccc(cc2Cl)[C@@H](O[C@@H]2O[C@H](CO)[C@@H](O)[C@H](O)[C@H]2NC(C)=O)[C@@H]2NC(=O)[C@H](NC(=O)[C@@H]4NC(=O)[C@H]4NC(=O)[C@@H](Cc5ccc(c(Cl)c5)O3)NC(=O)[C@H](N)c3ccc(O)c(c3)Oc3cc(O)cc4c3)c3ccc(O)c(c3)-c3c(O[C@H]4O[C@H](CO)[C@@H](O)[C@H](O)[C@@H]4O)cc(O)cc3[C@@H](C(=O)O)NC2=O)O[C@H](CO)[C@@H](O)[C@@H]1O | 0.886 | 0.953
6 | Cc1cc(Nc2ccc(NC(=O)c3ccc(Nc4ccnc5ccccc45)cc3)cc2)nc(N)n1 | 0.945 | 1
7 | CCC(Cc1c(I)cc(I)c(N)c1I)C(=O)O (stereo not given) | 0.46 and 0.66 | 0.986 and 0.701
8 | CCC(NC(C)C)C(O)c1ccc(O)c(O)c1 (stereo not given) | 1.1 and 0.981 | 0.91 and 0.843
9 | C/C(=N\NC(=O)C(NC(=O)c1ccccc1)c1n[nH]c(=O)c2ccccc12)c1cccc(Br)c1 (stereo not given) | 1.04 | 0.86
10 | CN1CCN(C2=Cc3ccccc3Oc3ccc(Cl)cc32)CC1 | 0.747 | 0.689
11 | C[C@]12CC[C@@H]3c4ccc(O)cc4CC[C@H]3[C@@H]1CC[C@@H]2OC(=O)CCC1CCCC1 | 1.07 and 0.825 | 1.27 and 0.92
12 | C[C@H](NC(=O)[C@@H](O)c1cc(F)cc(F)c1)C(=O)N[C@@H]1C(=O)N(C)c2ccccc2-c2ccccc21 | 0.983 | 0.911
13 | CC(C)N(CCCNC(=O)Nc1ccc(C(C)(C)C)cc1)C[C@H]1O[C@@H](n2ccc3c(N)ncnc32)[C@H](O)[C@@H]1O | 1.05 and 1.09 | 1.03 and 0.969
14 | O=C1C=C2CC3(O)COc4c(ccc(O)c4O)C3=C2C=C1O (stereo not given) | 0.962 | 0.875
15 | COc1ccc2[nH]c(I)c(CCNC(C)=O)c2c1 | 0.76 | 0.916
16 | C[C@@H]1[C@H](O)[C@@H](C)/C=C/C=C/C=C/C=C/C=C/C=C/C=C/[C@H](O[C@@H]2O[C@H](C)[C@@H](O)[C@H](N)[C@@H]2O)C[C@@H]2O[C@](O)(C[C@@H](O)C[C@@H](O)[C@H](O)CC[C@@H](O)C[C@@H](O)CC(=O)O[C@H]1C)C[C@H](O)[C@H]2C(=O)O | 0.888 | 0.845
17 | O=C(O)CCCCN(CCc1ccccc1OCc1ccc(CCc2ccccc2)cc1)Cc1ccc(C(=O)O)cc1 | 1.01 | 0.893
18 | CO[C@@]1(NC(=O)CSCC#N)C(=O)N2C(C(=O)O)=C(CSc3nnnn3C)CS[C@@H]21 | 0.792 | 0.916
19 | CC(=O)O[C@H]1CC[C@]2(C)C3CC[C@@]4(C)[C@H](C5CC(C6OC6(C)C)OC5O)CC[C@]4(C)C3=CC[C@H]2C1(C)C (stereo not given in full) | 1.14 | 1.08
20 | CC(C)NC[C@H](O)COc1ccc(CC(N)=O)cc1 | 0.918 | 1.07

Row | Compound | PER2::LUC luminescence (time after treatment 24 h) | PER2::LUC luminescence (time after treatment 30 h)
21 | O=c1cc(N2CCOCC2)oc2c1ccc1ccccc12 | 1.03 | 1.01
22 | CCOC(=O)C(C)(C)Oc1ccc(Cl)cc1 | 0.977 | 0.81
23 | c1cnc2c(c1)ccc1cccnc12 | 0.463 | 0.41
24 | COc1cc(/C=C/C(=O)c2ccc(O)cc2O)ccc1O | 1.02 | 1.04
25 | CN1CCC(=C2c3ccccc3CC(=O)c3sccc32)CC1 | 0.913 | 0.838
26 | COc1ccccc1N1CCN(CC(O)COc2cccc3ccccc23)CC1 (stereo not given) | 0.979 and 0.717 | 1.03 and 0.991
27 | Nc1nc(N)c2nc(-c3cccc(O)c3)cnc2n1 | 0.78 | 0.636
28 | CCN1C(=O)NC(c2ccccc2)C1=O (stereo not given) | 0.986 | 0.921
29 | CCCN(CCC)C(=O)C(CCC(=O)O)NC(=O)c1ccccc1 (stereo not given) | 0.645 | 0.966
30 | CCCCC[C@H](CC(=O)O)C(=O)O | 1.03 | 0.945
31 | CC[C@H](CC[C@@H](C)[C@H]1CC[C@H]2[C@@H]3CC=C4C[C@@H](O)CC[C@]4(C)[C@H]3CC[C@]12C)C(C)C | 0.951 | 0.934
32 | O=C(O)CC[C@H]1CC[C@@](c2cc(F)ccc2F)(S(=O)(=O)c2ccc(Cl)cc2)CC1 | 1.19 | 0.985
33 | COC(=O)c1ccccc1O | 0.863 | 0.993
34 | CCCNC[C@]1(O)[C@H](C)O[C@@H](O[C@H]2[C@H](C)[C@@H](O[C@@H]3O[C@H](C)C[C@H](N(C)C)[C@H]3O)[C@](C)(O)C[C@@H](C)CN[C@H](C)[C@@H](O)[C@](C)(O)[C@@H](CC)OC(=O)[C@@H]2C)C[C@@]1(C)OC | 1.05 | 0.881
35 | O=C[C@H](O)[C@H](O)CO | 0.921 | 0.987
36 | O.O.O.O.O=C([O-])CC(O)(CC(=O)[O-])C(=O)[O-].[Li+].[Li+].[Li+] | 1.02 | 1.04
37 | N#CC(c1ccc(Cl)cc1)c1c(Cl)cc(-n2ncc(=O)[nH]c2=O)cc1Cl (stereo not given) | 0.707 | 0.715
38 | OCc1cc([C@@H](O)CNCCCCCCOCCOCc2c(Cl)cccc2Cl)ccc1O | 0.952 | 0.868
39 | CCOc1ccc(-n2c(C(C)N(Cc3cccnc3)C(=O)Cc3ccc(F)c(C(F)(F)F)c3)nc3ncccc3c2=O)cc1 (stereo not given) | 0.976 | 0.903
40 | O=c1ccc2ccc(O)c(O)c2o1 | 1.11 | 1.18
